According to the RNAGym collection of RNA variant scans (doi:10.7554/elife.90254):
Read counts are not given, so values of variants with three or more changes are uncertain.

B1: LINE1-mini (parent)
chain: GGCAGAGCUCAACACAGCGUGGCAAAGUGGCUGUGGCUAGACUGCC

Variants of: B1
Assay: self-cleavage, relative activity (ratio to wild type); higher = more cleavage; in vitro, sequencing; the parent is a self-cleaving ribozyme

Variant	self-cleavage
G2C A4C C23U C37G	0.04
G2A C18U G33C	0.03
G2A G33U G44C	0.05
G2A G29U C31G U34A C45G	0.11
G2A C15U G22C A25C G44C	0.1
G2A G5A C31G G33C	0.2
G2A G21U C37G	0.14
G2A G7U G21U G40U	0.88
G2A C15G U20A C31A U43C	0.02
G2C A6C A11G	0.01
G2A G5U A14U G29A G33A	0.07
G2A G5C A25C U28C	0.06
G2A G17A G30A G44C	0.22
G2A G19U C37U U43C	0.1
G2A G5U G21A G30U U34C	0.04
G2C A4C A25C	0.02
G2A G35U C37U A41G G44A	0.06
G2C A4G U9A C15U C31U	0.06
G2A G21U A24C C37A G40C	0.31
G2A G17U G22U A39G	0.04
G2A G5A C8G	0.14
G2C A4G G27U	0.01
G2A C18G G35C	0.11
G2A G7U A14G A16G A26C U34A U38C C45U	0.02

Variant	self-cleavage
G2C A6G C8A C23A U43G G44A	0.01
G2A G7U C10A U20C A26G G36U	0.02
G2A G5U C15U G40U	0.59
G2A C37G C46G	0.17
G2A U9A C15A A16G C23A G36A	0.22
G2A G21A G35A A39U	0.28
G2A G7A G35C	0.06
G2A G7A G35A	2.05
G2A C13U G21C A25G U32C A41U	0.02
G2C A4U G7A G29A G40C	0.11
G2A G29U U32A C37U	0.57
G2A G7C C23U	0.38
G2A G22U A25C G29A	0.41
G2A G5U A16C U20G U32G U34A	0.04
G2A G27U G33A U34C C37A G40A	0.16
G2A C15G G19A U28A G33C	0.07
G2A G5A A14U U34G C46U	0.32
G2A U9A G21U A39C C42U	0.19
G2A C23U G33A	0.26
G2A G7C A41U	0.21
G2A G17C C46A	0.35
G2A G40U C45U	0.13
G2A C15A U34C	0.03
G2A G19A A39G C45U	0.18

Variant	self-cleavage
G2A C13U A16U C45A	0.4
G2A C13U A16U C45U	0.2
G2A G19U G27C G33A U34C C42G	0.42
G2C A4U G5U G27A A41C	0.1
G2C A4U C10U	0.05
G2C A6C C18U G22U	0.91
G2C A6G C8G A16U U28A U38A	0.15
G2A G5C G19U U38A	0.03
G2A U38G C46G	0.02
G2A G7U C31U C37A	0.06
G2A C15A C23U A41G	0.11
G2A C18U U20A	0.24
G2A C23U A24U C37A	0.16
G2A U9G C23A G27U	0.08
G2A C15A C18A G21U G30C G35A G40A	0.01
G2A G5U C10U G22C	0.04
G2A U9C C37U	0.04
G2A C15A G33C U34C	0.14
G2A G5C U32C	0.01
G2A C13G G22A G27A	1.23
G2A C13U G29U	1.19
G2A G5U C13U C46A	0.1
G2A C13U U20A G27U	0.31
G2A C18G A25G	0.05

Variant	self-cleavage
G2A C15G U28C C46G	0
G2A G27U G44U	0.33
G2A C18A G33A U34C	0.07
G2A G7U C18G C23U A26G C46G	0.11
G2A C13G U28G U32A	0.03
G2A C18A C31A G40A	0.03
G2A U9A A26U C45G	0.39
G2A C13U G33C	0.06
G2A G19A G33U C42A	0.1
G2A G19A C23U U28A U43A	0.49
G2A G7C G21U G22A C31U	0.53
G2A U9G C31U U43G C45U	0.02
G2A U9A C15G G27A	0.59
G2A G7U C23G C46A	0.07
G2A G22U G29U	2.89
G2A C31G A41C	0.17
G2A G5U C10A C37U A39C C42U	0.02
G2A G36A C42A	0.41
G2A C18G U38A C46G	0.06
G2A U9C C13G C18A C42A	0.02
G2A C18U G35U	0.12
G2A U9C C31A	0.02
G2A C13U C31A	0.3
G2C A6G C10U A39U C42U	0.04

Variant	self-cleavage
G2A G19U G30U C42U	0.07
G2A G30U C31G C42A	0.12
G2C A4C C23A G44C C46U	0.21
G2A G17C G21U	0.1
G2A G33U G40A	0.06
G2A G19U C42U	0.1
G2C A6G C15A G17A G22A	0.12
G2C A4G A16U A25G U28G G36A G40C	0.01
G2A C15G C46G	0.04
G2A C13A C18A	0.03
G2A C18U A24U U34G G40C	0.01
G2A G19C U32C	0.29
G2A C13G G17C C23A	0.45
G2A U9G A24C U34A C42A	0.04
G2A G44A C45G	0.6
G2C A4C C13A C23G	0.05
G2A G7C U9A A12U G19A G27C	0.21
G2A C31U G40C C46G	0.08
G2A C31A U38C	0.17
G2A G30U G35U	0.1
G2A G22C U38A	0.58
G2A U9A A16C G21C A41G	0.76
G2A G30A G33A C46U	0.11
G2A G17C G22U G40U	0.15

Variant	self-cleavage
G2A U28C G44U	2.31
G2A G21C C46U	0.69
G2A G7C U20G C37A	0.02
G2A U9G A11U A14C C15A	0.01
G2A U28A A39U	0.19
G2A G17U C23A G27A G36U	0.07
G2A G7C C10A G21A G30C C37G	0.02
G2A C13A G30U C46G	0.26
G2A G17U C42A	0.12
G2C A4U G5C C13U U28A G36U C46U	0.02
G2A U20A G33C U34G	0.06
G2A G17C A26G C42U C45A	0.21
G2A G33C G35U G36C G40U	0.04
G2A U9C A14G C15G	0.08
G2C A6C G36U U43A	0.01
G2A G30U G35A C46A	0.16
G2A G17A C18U A24C A41U	0.09
G2A G22U C23A G30A	0.8
G2A C15U A16C A41C U43A	0.03
G2C A4U G17C U20G U28G	0.02
G2A C31U G36C G40U	0.08
G2A G7U U20A	0.08
G2A G29C G40U	0.19
G2A G22C A25C A26C U38G	0

Variant	self-cleavage
G2A G29C U32G C46A	0.07
G2A U34G G44C	0.04
G2C A4C U20A	0.03
G2A C13U A25G	0.16
G2A U9C U34A C46U	0.03
G2A G7A U9C A24C C45G	0.05
G2A G21U U38C	0.56
G2A G27U C46A	1.4
G2A C15U A26G	0.42
G2A G17A G19U A25U G33U A39G C42A	0.06
G2A G7U U28G G35U	0.01
G2A G21A G29A	1.64
G2C A4G C13U A16U G22C	0.02
G2A C15U G29A G40U	0.69
G2A G7U A25U C37A	0.03
G2C A4C C10U G29U G44C	0.01
G2A C15G G17U G33A C42G U43A	0.06
G2A G19A A41G	0.63
G2A C18U A41G	0.1
G2C A4C A11G G19U U43C	0.01
G2A G21U C31A G33C	0.04
G2A G7A A14C	0.12
G2C A6G C10G A41G G44C	0.01
